Measurements taken from the supplement of paper PMC10126150.
Values marked as one replicate rest on one cluster of the flow cell; about a third of the high ones do not repeat.

Tested on: ATP
Assay: switch fluorescence ratio, 500 uM ATP over buffer (Cy3 cluster intensity, sum of 5 cycles each) (fold (ratio)); higher = stronger signal-on switching upon ATP binding; sequences stand for … in TCGTCGGCAGCGTCAGATGTGTATAAGAGACAGTTTTTTTTTTTTTTTTTTTTTTTTT…TC
Details: aptamer strand: ATP DNA aptamer (quencher-CACCTGGGGGAGTATTGCGGAGGAAGG + anchor), 100 nM annealed; ATP concentration: 500 uM; one replicate
Summary of the method: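 After annealing to 100 nM quencher-labelled ATP aptamer, Cy3-labelled switching-strand clusters on a modified Illumina MiSeq flow-cell were imaged in selection buffer. A second image followed after 15 min with 500 uM ATP at 22 °C, and five such buffer/ATP cycles were done, each separated by NaOH stripping and re-annealing. The fluorescence ratio, averaged per switch-domain sequence, is summed target-cycle over summed buffer-cycle Cy3 intensity per cluster, with clusters outside 100-1000 RFU excluded.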
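Further: ATP exposure 15 min at 22 °C before imaging.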

Sequence | switch fluorescence ratio
GCGTAAGG | 1
ACTAAAATCC | 1.24
CGAGTTGACT | 0.977
TGCTACGTGT | 1
TTAGGAGAAC | 1.02
ATACGCGCCA | 1.07
AATTGTGTGG | 0.991
GCTGAAGCTG | 1.04
TTGTGTGGAG | 1
AGCGTAGGG | 1.03
TAACTCAGGG | 1.03
AGTCATGAAT | 0.994
GCCACCGGTC | 0.931
GTCACAGCGG | 1.03
ACGATGAATC | 1.06
GCTTCCTCAT | 1.5
AACTAGGATC | 0.974
TTACGTGCTT | 1.19
GCAGTTTAAC | 1.06
GATCTGCTCG | 1.02
TGCACAACGG | 1.03
TCGGGCCGTA | 0.919
ATCGTCCACG | 1.02
CTGCGTTAAC | 1.41
GAGGTTCAAG | 0.947
TTCTGGGAGC | 0.977

Sequence | switch fluorescence ratio
CGGGATGGTC | 0.988
TAAGGTATGG | 0.982
ACCCAACGGC | 1.24
ATGCACGGAG | 0.98
TCTTGCTTCA | 1.01
ATACCTAAA | 1.02
TCATGGTCGA | 0.984
TTAGCGCTT | 0.983
CTGACCATC | 1.29
CGGTCTGGAA | 1.01
ACCGCAACTT | 2.02
TCAATGGTCG | 1.12
AGGAGGACGC | 1.07
ACTACCTGTG | 1.45
AACGTGGGCT | 0.997
AAGACCCTT | 1.04
GGTCGAACCA | 1.03
GTCAAAGTTC | 1.02
GGAAAAATTC | 1.03
TAAGCCGACT | 2.22
CTTTTGCGCG | 0.968
CTTTGTCGGC | 1.01
AGACTTGGTG | 0.97
CAGCATAACT | 1.76
GGCCTGCAGT | 1.01
AGATATCTGC | 0.973

Sequence | switch fluorescence ratio
GCGCGTTTTC | 1.04
CAGTGCTACG | 0.994
CTGGATCTGC | 1.09
ATCATGGACA | 1.07
TGAGACACT | 1
ATCGGGCTAG | 0.967
TGGTGTCCTC | 1.03
GATAATCGGT | 0.963
AGCGCCCGCG | 1
TCCACTTTGC | 1.06
ACGGAAGACG | 1.03
TTGGGCAACC | 1.02
CGACCAGTTT | 1.04
ACCGCGGGTG | 1.63
TATGTCCAT | 0.985
CTCGTAAACT | 1.12
GTCAGGTCGG | 1.06
GAGCTGATCA | 1
AAGCAAGTGG | 1.03
GTTGGGGGCT | 1.01
GGTGATTCTA | 1.06
GCATTATAAG | 1.04
TCTCGGTTTC | 1.04
GGGCACACCC | 1.04
GTTACCACGC | 1.03
CATCGAGTAG | 0.995

Sequence | switch fluorescence ratio
CTGTTTTTAG | 1.02
AGTAAACGCA | 1.07
GCTGGTGGGA | 0.992
TGTGAACCG | 0.987
AGTAGTAATC | 1.22
GGACGAAGGT | 1.01
GGGTGTTGGG | 1.04
CTCGTATATA | 1.02
CGATTGCCTA | 1.03
GCAGTAGGCG | 1.02
TGACCTTCGT | 1.35
TTTATAAAAG | 1.02
AGCATCACGA | 1.13
GCCCGACCTC | 1.31
GGTCGGGAGG | 0.987
TGACCGTGT | 0.97
GGCACAATTA | 1
CTTGCATGCA | 0.997
GAGATTCTAC | 0.973
AAGTGTCGGA | 0.993
AAGTCAACGC | 0.968
AGGTGGAGCG | 0.982
CTGAGCAAA | 1.97
GCTGCGTCGC | 0.968
TCATATAGT | 1.03
GGGCACAGGG | 1.01

Sequence | switch fluorescence ratio
CCCGCGAGTG | 2.08
TTATCTGGTA | 1.01
CCATTGTCTA | 1.01
AAACGTGCAT | 1.08
TTTCGTTAAG | 1.02
GCTAGCTCTG | 0.988
CATTTGTGT | 1.02
CGATTCTACG | 1.01
GAGATATGCG | 1.06
AAAAGCCGAG | 1
CAGGGAAGTT | 1.02
CAAATGCATT | 1.01
GAAGGATCGC | 0.997
CGACAACTGG | 0.958
TAGTCAGTAG | 1.04
TGTTATTAGG | 0.951
TTTAAATGTG | 0.99
TTCTTACCCC | 1.09
GGGCAGCCGA | 1.06
GCATAAAGAG | 1.01
GTGGACTGCT | 0.932
CTGTAACTGC | 1.21
ATAAGACTCA | 1.01
GACATTGTAC | 1.18
GTGCAAATTC | 1.06
TTGGGGGTG | 1.06

Sequence | switch fluorescence ratio
ACAAAAGTCT | 0.982
GCATGGCTCC | 1.74
CCGGCGGGCG | 0.976
TTATTACAAG | 1
ATCAAAAAGT | 1.04
GCCATCCCAC | 1.14
CAACCCTTTG | 0.994
TCTAGGGCAG | 0.997
TGGGAAACGG | 1.09
TGCCAAACGC | 1.18
TATCGTGTGT | 0.993
ACAAAAAGTT | 0.967
AAGCGCACGG | 1.05
AATTTACCAA | 1.05
CGAGCAGGGA | 1.18
ATTTCATCCG | 1.81
GCGGAAGCAA | 1.12
GGAACTGAGT | 0.973
ACGAATCCAG | 1.16
AGCGGATTG | 0.973
TAATTATGTA | 0.991
CAGGACAAGG | 0.94
AGGCCCTGCG | 1.24
AATGTTGGCC | 1.04
AGGATGTTTA | 0.976
GTAAAGAAGC | 1.03

Sequence | switch fluorescence ratio
TATCGTGAGG | 0.988
TATATGGGCG | 1.09
AAAGACGGAA | 1.21
ACTCAGAGTT | 0.977
TCGTGATAAT | 1.04
TCATCATATA | 1.03
TTTACGCATG | 1.06
AACTGATGTC | 1.02
TGTATGTCGC | 1.05
GTAGCTAGAA | 1.33
ATGGGTAGAC | 1.04
GTTGGTGTCG | 1.02
GCTTCTCTGA | 0.99
GGTATTTCAA | 0.955
ATAAAGGCCT | 1.03
GCCACTAACT | 1.08
GAGCACTCCG | 1.2
CGAGTGTGA | 1.03
TTATATGATG | 0.977
TCGTATAAG | 0.96
TGCGCCGTAG | 0.991
GGAATCTAAA | 0.98
TACTGAAAA | 1.04
AATCGGTGC | 1.05
TGTTATTGTA | 0.982
GTTGCCGCCC | 1.01

Sequence | switch fluorescence ratio
CGTCGATTTT | 0.999
GCAATATTTG | 1.15
TATTCGGAC | 1.06
TACATGCCAG | 1.02
TGCCCGTAGG | 1.04
GGTGATGCCG | 0.971
TATGATGTG | 0.971
TTTGTTGCGC | 0.988
TTTCATGGGC | 0.936
GAAGCGACCG | 1.01
CTTAGCGCTT | 0.961
ACCGAAACGC | 1.51
CGGGGACTAG | 0.986
ACGGCCGCCT | 1.01
TCGTAGGCGT | 1.03
TCCGACTTG | 1.01
CACCTTGAA | 0.978
ATTGGCAACG | 0.971
GGGCCAATAC | 3.03
